Holding throughout (assay): two-hybrid; GAL4 based, S. cerevisiae PCY2; Gal4AD-Pex5p(C) with Gal4DB-SCP2 variants; β-galactosidase activity (A420 per mg protein per min), mean of three measurements
In assay [1] the target is Gal4DB-mSCP2 (21-143), two-hybrid fusion (human) (UniProt P22307).
For assay [2], the target named is Gal4DB-preSCP2 (1-143), two-hybrid fusion (human) (UniProt P22307).
In assay [3] the target is T1, Gal4DB-mSCP2ΔAKL (21-140), two-hybrid fusion (human) (UniProt P22307).
T1 sequence: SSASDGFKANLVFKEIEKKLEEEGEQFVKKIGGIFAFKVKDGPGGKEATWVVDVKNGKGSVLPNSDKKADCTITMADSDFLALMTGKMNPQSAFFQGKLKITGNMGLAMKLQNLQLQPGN

In assay [4] the target is T2, Gal4DB-preSCP2ΔAKL (1-140), two-hybrid fusion (human) (UniProt P22307).
T2 sequence: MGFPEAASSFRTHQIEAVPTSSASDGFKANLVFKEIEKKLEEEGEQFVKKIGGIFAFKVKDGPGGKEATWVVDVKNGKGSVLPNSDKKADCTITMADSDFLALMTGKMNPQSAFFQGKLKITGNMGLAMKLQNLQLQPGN

Results are given in words; binding and its absence hold for the method and conditions named. Some entries that bind do so weakly or less than the wild type. For part of these data: Where a sequence is shown, tags or fusion partners need not be part of it.

In the case of “Gal4AD-Pex5p(C) (residues 315-639) D624W, two-hybrid fusion (from UniProt P50542 315-639) (domain or fragment)”, the binding result in assay [1] and in assay [2] was “binds” in each case.
Turning to “Gal4AD-Pex5p(C) (residues 315-639), wild-type, two-hybrid fusion (from UniProt P50542 315-639) (domain or fragment)”, the binding result in assay [3] was “no binding”; in assay [1], “binds”; in assay [2], “binds”; in assay [4], “no binding”.

These data come from paper PMC3060121.
